# Test results as given in paper PMC9911399, “Two distinct binding modes provide the RNA-binding protein RbFox with extraordinary sequence specificity”.
# Positions count from the first letter of the chain named. The list shows a part of the results.
# T1: RBFOX1 RRM (Homo sapiens, UniProt Q9NWB1 109-208)
# T1 sequence: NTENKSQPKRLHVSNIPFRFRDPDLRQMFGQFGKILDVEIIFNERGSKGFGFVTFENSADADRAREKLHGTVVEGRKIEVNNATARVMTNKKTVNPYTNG
# B1: GGUGCCU (DNA:RNA)
# RNA: GGGAGACCGGAAUUCAGAUUGUCCGGUGCCUUUAAAUCCCGUCGUAGCCACCA
# DNA 1: CAATCTGAATTCCGGTCTCCC
# DNA 2: TGGTGGCTACGACGGGATT
# B2: GGCGUUC (DNA:RNA)
# RNA: B1 RNA with U27C, C29U, C30U, U31C
# DNA 1: CAATCTGAATTCCGGTCTCCC
# DNA 2: TGGTGGCTACGACGGGATT
# B3: GUAGUUC (DNA:RNA)
# RNA: B1 RNA with G26U, U27A, C29U, C30U, U31C
# DNA 1: CAATCTGAATTCCGGTCTCCC
# DNA 2: TGGTGGCTACGACGGGATT
# B4: GCCCUAU (DNA:RNA)
# RNA: B1 RNA with G26C, U27C, G28C, C29U, C30A
# DNA 1: CAATCTGAATTCCGGTCTCCC
# DNA 2: TGGTGGCTACGACGGGATT
# B5: AGUCAAG (DNA:RNA)
# RNA: B1 RNA with G25A, G28C, C29A, C30A, U31G
# DNA 1: CAATCTGAATTCCGGTCTCCC
# DNA 2: TGGTGGCTACGACGGGATT
# B6: GUGUUAU (DNA:RNA)
# RNA: B1 RNA with G26U, U27G, G28U, C29U, C30A
# DNA 1: CAATCTGAATTCCGGTCTCCC
# DNA 2: TGGTGGCTACGACGGGATT
# B7: AAAAAUC (DNA:RNA)
# RNA: GGGAGACCGGAAUUCAGAUUGUCCAAAAAUCUUAAAUCCCGUCGUAGCCACCA
# DNA 1: CAATCTGAATTCCGGTCTCCC
# DNA 2: TGGTGGCTACGACGGGATT
# B8: GGCCAGU (DNA:RNA)
# RNA: B1 RNA with U27C, G28C, C29A, C30G
# DNA 1: CAATCTGAATTCCGGTCTCCC
# DNA 2: TGGTGGCTACGACGGGATT
# B9: AUCACUC (DNA:RNA)
# RNA: B7 RNA with A26U, A27C, A29C
# DNA 1: CAATCTGAATTCCGGTCTCCC
# DNA 2: TGGTGGCTACGACGGGATT
# B10: GGUGCGA (DNA:RNA)
# RNA: B1 RNA with C30G, U31A
# DNA 1: CAATCTGAATTCCGGTCTCCC
# DNA 2: TGGTGGCTACGACGGGATT
# B11: UGGGACA (DNA:RNA)
# RNA: B1 RNA with G25U, U27G, C29A, U31A
# DNA 1: CAATCTGAATTCCGGTCTCCC
# DNA 2: TGGTGGCTACGACGGGATT
# B12: UACCCCG (DNA:RNA)
# RNA: B1 RNA with G25U, G26A, U27C, G28C, U31G
# DNA 1: CAATCTGAATTCCGGTCTCCC
# DNA 2: TGGTGGCTACGACGGGATT
# B13: GGACCAC (DNA:RNA)
# RNA: B1 RNA with U27A, G28C, C30A, U31C
# DNA 1: CAATCTGAATTCCGGTCTCCC
# DNA 2: TGGTGGCTACGACGGGATT
# B14: GCACUUA (DNA:RNA)
# RNA: B7 RNA with A25G, A26C, A28C, A29U, C31A
# DNA 1: CAATCTGAATTCCGGTCTCCC
# DNA 2: TGGTGGCTACGACGGGATT
# B15: CCGAUGA (DNA:RNA)
# RNA: B7 RNA with A25C, A26C, A27G, A29U, U30G, C31A
# DNA 1: CAATCTGAATTCCGGTCTCCC
# DNA 2: TGGTGGCTACGACGGGATT
# B16: ACCCUAA (DNA:RNA)
# RNA: B7 RNA with A26C, A27C, A28C, A29U, U30A, C31A
# DNA 1: CAATCTGAATTCCGGTCTCCC
# DNA 2: TGGTGGCTACGACGGGATT
# B17: ACCUGAU (DNA:RNA)
# RNA: B7 RNA with A26C, A27C, A28U, A29G, U30A, C31U
# DNA 1: CAATCTGAATTCCGGTCTCCC
# DNA 2: TGGTGGCTACGACGGGATT
# B18: CAGAAUG (DNA:RNA)
# RNA: B7 RNA with A25C, A27G, C31G
# DNA 1: CAATCTGAATTCCGGTCTCCC
# DNA 2: TGGTGGCTACGACGGGATT
# B19: GCUGGCG (DNA:RNA)
# RNA: B1 RNA with G26C, C29G, U31G
# DNA 1: CAATCTGAATTCCGGTCTCCC
# DNA 2: TGGTGGCTACGACGGGATT
# B20: CAUAUGA (DNA:RNA)
# RNA: B7 RNA with A25C, A27U, A29U, U30G, C31A
# DNA 1: CAATCTGAATTCCGGTCTCCC
# DNA 2: TGGTGGCTACGACGGGATT
# Biological target: T1, RBFOX1 RRM
# Test: EMSA; HiTS-Eq, 1 nM pool, 10 min; buffer printed only for the single-RNA assays: 10 mM Tris pH 7.5, 150 mM NaCl, 3.4 mM EDTA, 0.001% NP-40, 30 C
# Details: tags: His6 N-terminal (pET28a); label: 5' 32P
# Summary of the method: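 These values rest on relative association constants, computed from read-count changes of each RNA species versus the control reaction and normalised to the cognate motif. Reads came from free RNA recovered by 8% native PAGE after purified RbFox RRM (wild type or mutant) at increasing concentrations was equilibrated for 10 min in 50 µL with 1 nM of a 5′-radiolabelled pool with 7 randomized nucleotides and DNA-annealed flanks.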
row,Binder,binding signal
1,B1,0.0102 KA relative to UGCAUGU
2,B2,0.0182 KA relative to UGCAUGU
3,B3,0.0153 KA relative to UGCAUGU
4,B4,0.00858 KA relative to UGCAUGU
5,B5,0.00432 KA relative to UGCAUGU
6,B6,0.00996 KA relative to UGCAUGU
7,B7,0.000917 KA relative to UGCAUGU
8,B8,0.0163 KA relative to UGCAUGU
9,B9,0.000499 KA relative to UGCAUGU
10,B10,0.00929 KA relative to UGCAUGU
11,B11,0.0078 KA relative to UGCAUGU
12,B12,0.00502 KA relative to UGCAUGU
13,B13,0.00949 KA relative to UGCAUGU
14,B14,0.00566 KA relative to UGCAUGU
15,B15,0.016 KA relative to UGCAUGU
16,B16,0.00202 KA relative to UGCAUGU
17,B17,0.00655 KA relative to UGCAUGU
18,B18,0.0213 KA relative to UGCAUGU
19,B19,0.0219 KA relative to UGCAUGU
20,B20,0.00465 KA relative to UGCAUGU
